# Test results: PubChem BioAssay AID463173 (ICCB-Longwood Screening Facility, Harvard Medical School, 2010)
# About 4,300 (8.3%) of roughly 52,000 compounds were called active. No stated cut-off is given here; in the data, active means survival mostly below about 52% (no sharp cut-off); inactive means mostly above about 56%. The list shows a part of the results.
# System: DeltatarO mutant
# Experiment: S. aureus survival, RN4220 and DeltatarO strains – OD600, teichoic acid synthesis inhibitors, primary screen (AID 463173)
# Details: S. aureus RN4220 wild type/DeltatarO growth, OD600, 18 h, stronger effect = lower value, screened at 18.75 µg/mL (by protocol)
row,Compound,survival
1,N#Cc1c(NC(=O)C(F)(F)F)oc(-c2ccccc2)c1-c1ccccc1,active: 12%
2,COC(=O)c1ccc(C(=O)OC)c(NC(=O)N2CC3CCCN3c3ccccc32)c1 (stereo not given),inactive: 77%
3,O=C(CC1NCCNC1=O)Nc1ccccc1F (stereo not given),inactive: 99%
4,CCOC(=O)c1c(-c2ccc(C)cc2)csc1NC(=O)c1cc(=O)c2cc(Cl)ccc2o1,inactive: 116%
5,CCOc1ccccc1NC(=O)CSc1nc2c([nH]c3ccccc32)c(=O)n1-c1ccccc1,inactive: 60%
6,NC(=O)CSc1nsc(SCC(N)=O)n1,inactive: 94%
7,O=C(CCC1CCCC1)Nc1ccc2c(c1)OCO2,inactive: 101%
8,Cc1ccc(OCc2nc(-c3ccc(C(=O)N4CCN(c5cc(Cl)ccc5C)CC4)cc3)oc2C)cc1,inactive: 76%
9,O=S(=O)(c1ccccc1)c1nc(-c2cccs2)oc1SCc1ccccc1Cl,inactive: 60%
10,CCc1nn(Cc2cccc(F)c2)c(=O)c2cc3cc(C)ccc3n12,active: 40%
11,Cc1cccc(NC2=NCC(=O)N2Cc2ccccc2)c1,inactive: 89%
12,O=C(NCc1ccccc1)c1nc[nH]c1C(=O)NCc1ccccc1,inactive: 87%
13,CCC(C)NC(=O)Cn1c(=O)n(-c2ccc(Cl)c(Cl)c2)c(=O)c2c(C)c(C(=O)N(CC)CC)sc21 (stereo not given),inactive: 58%
14,Cc1ccc(-n2ncc(C(=O)N3CCN(c4ccccn4)CC3)c2C2CCN(C(=O)OC(C)(C)C)CC2)cc1,inactive: 81%
15,Cc1ccc(NC(=O)c2cc(S(=O)(=O)N3CCCc4ccccc43)ccc2F)cc1F,inactive: 69%
16,COC(=O)c1ccccc1NC(=O)Cn1c(=O)nc(-c2ccccc2)c2cc(Cl)ccc21,inactive: 90%
17,COc1ccc(CN(C(=O)c2cc3sccc3n2C)C2CC(C)(C)NC(C)(C)C2)cc1,inactive: 79%
18,CCOC(=O)c1cc(-c2ccccc2)n(-c2cccc(C(=O)Nc3cccc(C)c3)c2)c1C,inactive: 117%
19,Cc1ccc2nc(COc3cccc(NC(=O)COc4ccccc4F)c3)cc(=O)n2c1,inactive: 124%
20,O=C(C1CC1)N1CCc2cc(Br)cc(S(=O)(=O)N3CCN(c4cccc(Cl)c4)CC3)c21,inactive: 62%
21,Cc1ccc(CSc2ccc3nnc(CCNS(=O)(=O)c4ccc(C)cc4)n3n2)cc1,inactive: 73%
22,Cc1cccc(OCC(=O)OCc2cc(=O)n3nc(-c4cccs4)sc3n2)c1,inactive: 96%
23,NNC(=O)c1ccc2[nH]c3c(c2c1)CCCC3,inactive: 84%

row,Compound,survival
1,c1ccc(CCN2CNc3nc4ccccc4n3C2)cc1,inactive: 76%
2,Cc1cccc(Cn2cc(S(=O)(=O)c3ccc(Cl)cc3)c(=O)c3cc4c(cc32)OCO4)c1,inactive: 79%
3,CC(=O)c1ccc(NC(=O)c2ccc(NC(=O)CCS(=O)(=O)c3cccs3)cc2)cc1,inactive: 69%
4,CCn1c(Cc2ccccc2)nnc1SCC(=O)N1CCCCC1C (stereo not given),inactive: 99%
5,Cn1c(=O)c2c(SCC(=O)NCC3CCCO3)nc(-c3cccc(F)c3)nc2n(C)c1=O (stereo not given),inactive: 87%
6,O=C(c1ccco1)N1CCN(C(=O)C2CCCN(S(=O)(=O)Cc3ccccc3)C2)CC1 (stereo not given),inactive: 85%
7,CS(=O)(=O)N1CCC(n2c(C(F)(F)F)nc3cccnc32)CC1,active: 47%
8,Cc1cccc(OCCSc2nc3ccc(NC(=O)c4cccs4)cc3s2)c1,inactive: 61%
9,Cc1cccc(C)c1Nc1c(-c2cccs2)nc2ncccn12,inactive: 76%
10,Cc1cc(Nc2ccc(C(=O)O)cc2)nc(N)n1,inactive: 94%
11,CCCCC(=O)Nc1cc2nn(-c3ccc(OCC)cc3)nc2cc1C,inactive: 70%
12,Cc1oc(CC(C)C)cc1C(=O)O,inactive: 104%
13,CCS(=O)(=O)N1CCC(NC(=O)c2ccccc2Cl)CC1,inactive: 77%
14,Cc1ccc(Cl)cc1N1CCN(CCCNC(=O)c2nnc(Cc3cccc(Cl)c3)o2)CC1,active: 25%
15,O=C(Nc1cccc(F)c1)c1cccc2c1C(=O)N(C1CCCCC1)C2,inactive: 71%
16,CCC(=O)N1CCCc2cc(S(=O)(=O)N3CCC(C(=O)Nc4ccccc4CC)CC3)ccc21,inactive: 129%
17,Cc1ccccc1Nc1cc(C(=O)NCCc2ccc(Cl)cc2)c2ccccc2n1,inactive: 76%
18,CCCC(=O)Nc1c2c(nc3ccccc13)N(c1ccccc1)CC2,inactive: 81%
19,Cn1c(O)c(C=NCC2CCN(C(=S)Nc3ccccc3)CC2)c(=O)n(C)c1=O,inactive: 98%
20,COC(=O)Cc1c(C)c2ccc3c(c2oc1=O)CN(Cc1ccccc1OC)CO3,inactive: 111%
21,CC(CNC(=O)Cn1c(-c2cccs2)cc2ccccc21)c1ccccc1 (stereo not given),inactive: 100%
22,CCC(=O)N1CCc2cc(Br)cc(S(=O)(=O)N3CCCC(C(=O)NCc4ccc(OC)cc4)C3)c21 (stereo not given),inactive: 93%
23,CCc1ccccc1NC(=O)CSc1ncc(S(=O)(=O)c2ccccc2)c(=O)[nH]1,inactive: 93%

row,Compound,survival
1,CCc1ccc(N(C(=O)c2ccco2)C(C(=O)NC2CCCC2)c2ccncc2)cc1 (stereo not given),inactive: 94%
2,Cc1cccc(OCC(=O)Nc2ccc(Cl)c(-c3nc4ccccc4[nH]3)c2)c1,active: 38%
3,O=S(=O)(c1ccc(F)cc1)n1cccc1,inactive: 84%
4,CCCOc1ccc(NC(=O)CC2C(=O)N(c3ccc(Cl)cc3)C(=O)N2CCc2ccncc2)cc1 (stereo not given),inactive: 106%
5,CC1=C(c2ccc(C)c(C)c2)S(=O)(=O)N=C1N1CCC(C(=O)Nc2cccc(F)c2)CC1,inactive: 79%
6,COc1cccc(NC(=O)CSc2nnc(-c3cccs3)o2)c1,inactive: 52%
7,COc1ccccc1NC(=O)Cn1c(=O)n(-c2cccc(Cl)c2)c(=O)c2c1c1cc(C)ccc1n2C,inactive: 77%
8,CN1CCc2nc3sc(C(=O)Nc4cccc(C#N)c4)c(N)c3cc2C1,active: 54%
9,CC(C)C(c1nnnn1CCc1ccccc1)N1CCCC1 (stereo not given),inactive: 84%
10,Cc1cc(C)cc(Nc2nnc(-n3nc(C)cc3C)c3ccccc23)c1,inactive: 80%
11,COc1ccc(NC(=O)CN2C(=O)COc3ccc(S(=O)(=O)N4CCCCC4)cc32)cc1Cl,inactive: 83%
12,O=C(CN1C(=O)CSc2ccc(S(=O)(=O)N3CCCC3)cc21)NCc1ccc(Cl)cc1,inactive: 65%
13,COc1ccc(NC(=O)c2oc3ccccc3c2NC(=O)Cc2cccs2)cc1,inactive: 96%
14,CCOC(=O)c1cnc2ccc(C)cc2c1NCCc1ccc(OC)c(OC)c1,inactive: 136%
15,Cc1ccc(NC(=O)c2sc3nc(-c4ccc(F)cc4)ccc3c2N)cc1F,inactive: 60%
16,CC1CCCCC1NC(=O)CN1CCC(NC(=O)c2cccc(F)c2)CC1 (stereo not given),inactive: 85%
17,COc1ccc(C)cc1NC(=O)N1CCN(c2cc(-c3noc(C)n3)ccc2C)CC1,inactive: 88%
18,O=S(=O)(Cc1ccccc1)N1CCN(Cc2ccco2)CC1,inactive: 68%
19,CCSC(=C(C#N)C#N)c1cc2c([nH]1)CCCC2,active: 45%
20,O=C(CC1C(=O)N(c2ccccc2)C(=O)N1Cc1ccc2c(c1)OCO2)Nc1ccccc1 (stereo not given),inactive: 87%
21,Cc1c(C)n(Cc2ccc(F)cc2)c2ccc(C(=O)Nc3ccc(Cl)cc3)cc12,inactive: 76%
22,Cc1ccc(-c2cc3c(n2-c2ccccc2F)CC(C)(C)CC3=O)cc1,inactive: 101%
23,C=C(C)c1nc2cc(OC)c(OC)cc2c(=O)o1,inactive: 94%

row,Compound,survival
1,O=C1CC(c2nnc(Cc3ccccc3Cl)o2)CN1c1ccccc1 (stereo not given),inactive: 131%
2,CCOC(=O)c1ccc(CN(Cc2ccccc2C)S(=O)(=O)c2ccc(F)c(C(=O)Nc3cccc(OC)c3)c2)cc1,inactive: 75%
3,C[n+]1ccccc1C(O)Cc1ccncc1 (stereo not given),inactive: 94%
4,Cc1ccc(C)c(Cn2c(=O)n(CCCCCC(=O)NCc3ccc4c(c3)OCO4)c(=O)c3sccc32)c1,inactive: 98%
5,CC(=O)c1ccc(NC(=O)CCCc2nc(-c3cccc(C)c3)no2)cc1,inactive: 69%
6,O=C(Cn1cc(C(=O)C2CC2)c2ccccc21)Nc1ccc(Br)cc1,inactive: 95%
7,COc1ccccc1N1CCN(c2ccc(-c3nc(-c4ccccc4)no3)cc2[N+](=O)[O-])CC1,inactive: 77%
8,CCC1CCCCN1CCCNC(=O)c1ccc2c(c1)N(Cc1ccc(Cl)cc1)C(=O)c1ccccc1S2(=O)=O (stereo not given),inactive: 120%
9,CCN1C(=O)/C(=C2/Sc3ccc(OC)cc3N2CC)SC1=Nc1ccc2c(c1)OCCO2,inactive: 91%
10,COc1ccc(N2CCN(C(=O)CN(C)S(=O)(=O)c3cccs3)CC2)cc1,inactive: 110%
11,COc1cccc(Nc2sc(C(=O)c3ccc(F)cc3)c(N)c2C(=O)NCc2ccc(C)cc2)c1,inactive: 91%
12,COc1ccc(Cn2ccnc2SCC(=O)Nc2cc(C(F)(F)F)ccc2Cl)cc1,inactive: 81%
13,CCN(CC)C(=O)Cn1c(=O)cc(C)c2c(C)nn(C)c21,inactive: 124%
14,CCOC(=O)c1ccccc1NC(=O)c1sc2ccccc2c1Cl,active: 36%
15,COc1ccc(-c2cn3nc(N4CCCC(C(=O)NCc5ccccc5C)C4)sc3n2)cc1 (stereo not given),inactive: 69%
16,Cc1ccccc1-n1c(=O)c2c3c(sc2n2cnnc12)CCCC3,inactive: 72%
17,COc1ccc(CNC(=O)C2CCN(c3nnc(-n4cccc4CNc4ccc(C)cc4)s3)CC2)c(OC)c1,inactive: 70%
18,Cc1ccc(S(=O)(=O)c2nc(-c3cccc(C)c3)oc2N2CCCCC2)cc1,active: 6%
19,O=S(=O)(c1ccc(F)cc1)N1CCC(n2c(C(F)(F)F)nc3cccnc32)CC1,inactive: 87%
20,COC(=O)c1ccc2c(c1)N(CC(=O)Nc1cccc(C(F)(F)F)c1)C(=O)c1ccccc1S2,inactive: 91%
21,O=C(CSc1nc2c([nH]c3ccccc32)c(=O)n1-c1ccccc1F)Nc1ccccc1C(F)(F)F,inactive: 67%
